# Shown are siRNA guide strands that differ only in the seed, positions 2 to 7.
# Assays:
# [1] = test system: GL261; assay: cell viability relative to siNT1 (ATP content); H4 human neuroglioma and GL261 mouse glioma; higher = less toxic; conditions: siRNA concentration 25 nM; 96 h; mouse
# Experimental: (§1)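 Arrayed screen of all 4096 6mer seeds. Each seed sits at guide-strand positions 2-7 of a neutral 19mer siRNA backbone (siNT1-based, passenger strand 2'-O-methyl modified at positions 1-2 to block RISC loading, 3' DNA overhangs). The guide strand is built here as U + seed + ACAUGUAAACCA. Cells were reverse transfected in triplicate in 384-well plates (H4 at 10 nM, GL261 at 25 nM) with Lipofectamine RNAiMAX. Viability was read as ATP content (CellTiter-Glo) 96 h after transfection and normalised to siNT1 (%).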
# [2] = test system: H4; assay: as above; conditions: siRNA concentration 10 nM; 96 h; human
# Experimental: as §1
# 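Note: cells reverse transfected with siRNA duplexes via lipid reagent, ATP read by luminescence, triplicate wells, values scaled to mean viability with non-targeting control siNT1.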
Sequence,cell viability [1] [%],cell viability [2] [%]
UAGGUUUACAUGUAAACCA,65,85.2
UAGUAAAACAUGUAAACCA,55,96.8
UAGUAACACAUGUAAACCA,17.4,58.2
UAGUAAGACAUGUAAACCA,20.6,106
UAGUAAUACAUGUAAACCA,27,97.4
UAGUACAACAUGUAAACCA,28.1,97
UAGUACCACAUGUAAACCA,6.78,47.2
UAGUACGACAUGUAAACCA,50.7,85.5
UAGUACUACAUGUAAACCA,20,51.9
UAGUAGAACAUGUAAACCA,72.9,85.2
UAGUAGCACAUGUAAACCA,11.1,22.5
UAGUAGGACAUGUAAACCA,32.7,67.1
UAGUAGUACAUGUAAACCA,18.8,36.2
UAGUAUAACAUGUAAACCA,60.6,90.2
UAGUAUCACAUGUAAACCA,52.1,53
UAGUAUGACAUGUAAACCA,59.6,86
UAGUAUUACAUGUAAACCA,62.6,81.8
UAGUCAAACAUGUAAACCA,55.3,87.2
UAGUCACACAUGUAAACCA,32.9,57.9
UAGUCAGACAUGUAAACCA,42.9,81.3
UAGUCAUACAUGUAAACCA,31.5,69.6
UAGUCCAACAUGUAAACCA,17.5,84.9

Sequence,cell viability [1] [%],cell viability [2] [%]
UAGUCCCACAUGUAAACCA,7.06,50.5
UAGUCCGACAUGUAAACCA,29.7,67.1
UAGUCCUACAUGUAAACCA,23.5,45.1
UAGUCGAACAUGUAAACCA,44.9,120
UAGUCGCACAUGUAAACCA,24.2,56.6
UAGUCGGACAUGUAAACCA,42.4,82.3
UAGUCGUACAUGUAAACCA,49.2,85.1
UAGUCUAACAUGUAAACCA,53.5,108
UAGUCUCACAUGUAAACCA,18.1,36.5
UAGUCUGACAUGUAAACCA,34.5,90.3
UAGUCUUACAUGUAAACCA,36.7,78.5
UAGUGAAACAUGUAAACCA,75.6,92.8
UAGUGACACAUGUAAACCA,55.1,41
UAGUGAGACAUGUAAACCA,37.6,58
UAGUGAUACAUGUAAACCA,43.1,63.1
UAGUGCAACAUGUAAACCA,41.8,93.3
UAGUGCCACAUGUAAACCA,27.3,63.9
UAGUGCGACAUGUAAACCA,50.2,83.7
UAGUGCUACAUGUAAACCA,54.5,84.7
UAGUGGAACAUGUAAACCA,35.3,51.9
UAGUGGCACAUGUAAACCA,14.5,34
UAGUGGGACAUGUAAACCA,14.1,56.8

Sequence,cell viability [1] [%],cell viability [2] [%]
UAGUGGUACAUGUAAACCA,25.5,44.6
UAGUGUAACAUGUAAACCA,70.6,96.2
UAGUGUCACAUGUAAACCA,12.3,38.2
UAGUGUGACAUGUAAACCA,25,61.3
UAGUGUUACAUGUAAACCA,38.9,67.7
UAGUUAAACAUGUAAACCA,62.1,103
UAGUUACACAUGUAAACCA,34.6,24.9
UAGUUAGACAUGUAAACCA,40.2,87.4
UAGUUAUACAUGUAAACCA,54.9,78.3
UAGUUCAACAUGUAAACCA,34.4,78.5
UAGUUCCACAUGUAAACCA,8.78,17
UAGUUCGACAUGUAAACCA,40.1,77.9
UAGUUCUACAUGUAAACCA,18.6,67.7
UAGUUGAACAUGUAAACCA,58.6,69.9
UAGUUGCACAUGUAAACCA,19.7,16.6
UAGUUGGACAUGUAAACCA,35.8,39.1
UAGUUGUACAUGUAAACCA,18.2,37
UAGUUUAACAUGUAAACCA,71.3,116
UAGUUUCACAUGUAAACCA,54.7,89.7
UAGUUUGACAUGUAAACCA,42.2,83.8
UAGUUUUACAUGUAAACCA,65.1,118
UAUAAAAACAUGUAAACCA,67.7,81.8

Sequence,cell viability [1] [%],cell viability [2] [%]
UAUAAACACAUGUAAACCA,39.5,93
UAUAAAGACAUGUAAACCA,49.9,90.1
UAUAAAUACAUGUAAACCA,58.7,101
UAUAACAACAUGUAAACCA,45.7,118
UAUAACCACAUGUAAACCA,39.5,79.5
UAUAACGACAUGUAAACCA,47.8,93.7
UAUAACUACAUGUAAACCA,50.9,99.5
UAUAAGAACAUGUAAACCA,73.4,95.3
UAUAAGCACAUGUAAACCA,30.5,81.7
UAUAAGGACAUGUAAACCA,69.2,94.6
UAUAAGUACAUGUAAACCA,58.3,104
UAUAAUAACAUGUAAACCA,51.5,103
UAUAAUCACAUGUAAACCA,56.1,92.2
UAUAAUGACAUGUAAACCA,72.5,80
UAUAAUUACAUGUAAACCA,47.9,83.2
UAUACAAACAUGUAAACCA,68.6,98
UAUACACACAUGUAAACCA,42.8,65.3
UAUACAGACAUGUAAACCA,45.9,120
UAUACAUACAUGUAAACCA,68.1,109
UAUACCAACAUGUAAACCA,70.2,97.2

# — the supplement of paper PMC8948288
